# Experimental data: PubChem BioAssay AID624417 (National Center for Advancing Translational Sciences (NCATS), 2012)
# In all, about 410,000 compounds went through this assay and about 6,400 (1.6%) were called active. Inconclusive results, whose numbers are uncertain, are shown with a selection of clear calls. Calls come from the whole dose curve; as a rule, active = well fitted inhibition curve with a large enough effect; inconclusive = small, poorly fitted or top-dose-only effect; inactive = no such curve, though single readings can be large or run the other way. No potency is given beside an inconclusive call; the fits are too rough.
# Biological target: Glucagon-like peptide 1 receptor (Homo sapiens) (UniProt P43220)
# Chain of UniProt P43220 (P43220 whole entry, looked up): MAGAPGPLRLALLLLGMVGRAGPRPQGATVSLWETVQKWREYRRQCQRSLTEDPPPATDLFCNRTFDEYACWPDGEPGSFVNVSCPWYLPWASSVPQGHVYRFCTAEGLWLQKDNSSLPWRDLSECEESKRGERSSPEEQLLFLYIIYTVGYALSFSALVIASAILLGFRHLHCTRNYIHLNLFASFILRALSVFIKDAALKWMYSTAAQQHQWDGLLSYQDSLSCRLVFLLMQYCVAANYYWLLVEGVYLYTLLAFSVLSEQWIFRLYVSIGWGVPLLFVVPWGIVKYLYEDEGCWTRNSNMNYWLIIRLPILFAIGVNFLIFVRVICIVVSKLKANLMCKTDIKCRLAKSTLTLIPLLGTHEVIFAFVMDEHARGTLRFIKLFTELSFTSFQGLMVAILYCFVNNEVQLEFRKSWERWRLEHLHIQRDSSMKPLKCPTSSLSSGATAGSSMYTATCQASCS
# Assay: qHTS of GLP-1 Receptor Inverse Agonists (Inhibition Mode); note: nearly all actives have a fitted effect of over 55% in size
# Conditions: HEK293 GLP-1R CRE-luciferase, luminescence, 24 h, GLP-1R form is constitutively active; activity change, negative = inhibition: at 38.3 µM (top of the series) unless noted
# How it was run: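 Readout was luciferase luminescence, measured 12 min after detection reagent at room temperature. Beforehand, GLP-1R reporter HEK293 cells had sat 12 h, then received compounds for 24 hr at 37 deg C.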
# % is set by controls: 0 for no effect and ±100 for the full control effect; potency is the fitted concentration of half-maximal effect; tags give direction and shape of the fitted curve.
Compound,Potency,"activity change, negative = inhibition"
Nc1cccc(Oc2c(F)c(F)c(Oc3cccc(N)c3)c(F)c2F)c1,"inconclusive [inhibitor, partial curve, poor fit]",
COc1ccc(OCCC(=O)OCC(=O)NC(=O)NC2CCCCC2)cc1,,inactive: 7.66%
CC(CNC(=O)c1sc2ncccc2c1-n1cccc1)c1ccccc1 (centres undefined),"inconclusive [inhibitor, single point]",
CC(C)C(OC(=O)c1nsc(Cl)c1Cl)C(=O)NCC1CCCO1 (centres undefined),,inactive: 4.26%
Cc1cccc(NC(=O)c2cccc(NC(=O)Cc3cccs3)c2)c1,"inconclusive [inhibitor, partial curve, poor fit]",
O=[N+]([O-])c1cc(Cl)cc(/C=N/Nc2nc3ccccc3s2)c1O,"inconclusive [inhibitor, single point]",
Cc1cccc(N2CCN(C(=O)CCc3nc4ccccc4c(=O)[nH]3)CC2)c1C,"inconclusive [inhibitor, single point]",
O=c1[nH]ncc(N2CCCC2)c1Cl,,inactive: 11.1%
CC(=O)N1c2ccccc2C(=O)C1N1CCN(c2cccc(C)c2C)CC1 (centres undefined),,inactive: 17.2%
O=C(/C=C/c1ccc(Cl)cc1)N1CCN(Cc2ccccc2)CC1,"inconclusive [inhibitor, partial curve, poor fit]",
O=C(NC1CCCCCC1)c1[nH]c(C(F)(F)F)nc1-c1ccccc1,"inconclusive [inhibitor, single point]",
COC(=O)c1c(NC(=O)C2c3ccccc3Oc3ccccc32)sc2c1CCC(C)C2 (centres undefined),,inactive: -8.84%
CNC(=O)C(=O)NCC1OCCN1S(=O)(=O)c1ccc(OC)c(OC)c1 (centres undefined),,inactive: 7.23%
CCc1cc(=O)oc2c3c(cc(OCC(=O)NCCCn4ccnc4)c12)OC(C)(C)CC3,"inconclusive [inhibitor, partial curve, poor fit]",
COc1ccc2cc(-c3ccccc3F)ncc2c1,"inconclusive [inhibitor, single point]",
CC1CC(C)CN(C(=O)c2ccc(-c3ccc([N+](=O)[O-])cc3)o2)C1 (centres undefined),"inconclusive [inhibitor, single point]",
COc1cc(C2Nc3ccccc3C(=O)N2c2ccccc2)c(Br)cc1OCC(=O)O (centres undefined),,inactive: 21.4%
COc1ccc(Cl)c(-c2cc(C(=O)Nc3ccccc3)[nH]n2)c1,"inconclusive [inhibitor, single point]",
CCn1cc2nc(SCC(=O)Nc3ccc(OC)cc3OC)n(Cc3ccc(OC)cc3)c(=O)c2n1,"inconclusive [inhibitor, partial curve]",
